Experimental data: the supplement of paper PMC4166925
± gives the standard deviation of the averaged measurements. In all, about 33,000 sequences were measured (“E-score (dimensionless, -0.5 to 0.5)”: median about -0.049, highest 2% from about 0.37 on). This is one part of the list.

Test system: T1, PmTbr T-box DNA-binding domain (GST fusion)
T1 sequence: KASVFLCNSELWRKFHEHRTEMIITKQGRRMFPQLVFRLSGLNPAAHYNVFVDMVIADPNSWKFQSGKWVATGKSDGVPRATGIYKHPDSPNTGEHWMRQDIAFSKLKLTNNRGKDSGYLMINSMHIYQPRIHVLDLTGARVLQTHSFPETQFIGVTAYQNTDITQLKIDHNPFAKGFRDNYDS
Assay: PBM E-score of 8-mer (E-score (dimensionless, -0.5 to 0.5)); Tbr is Tbrain of the sea star Patiria miniata (Pm) or the sea urchin Strongylocentrotus purpuratus (Sp); higher = stronger binding preference; most listed sequences are background and not binding sites
Details: the construct has about 5 more residues each side
Method: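 Universal protein-binding microarray (Agilent AMADID 016060, 60-bp probes with a 35-bp variable region) incubated with 200 nM GST-fused Patiria miniata Tbr T-box DNA-binding domain (residues 272-466) in PBS pH 7.5. Scored for every ungapped 8-mer (given with its reverse complement) by the Universal PBM Analysis Suite as E-score (modified Wilcoxon-Mann-Whitney enrichment, range -0.5 to 0.5; >0.45 counts as bound) and Z-score of median probe intensity. Two replicate arrays (datasets 1 and 2).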
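Also: 200 nM protein in PBS on universal arrays averaged over duplicate arrays.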

| Sequence | PBM E-score of 8-mer |
| --- | --- |
| GCATCTGA | -0.0824 ± 0.1 |
| CAAGTAAG | -0.191 ± 0.039 |
| ACGAACCA | -0.122 ± 0.025 |
| CCATTTGC | -0.0789 ± 0.04 |
| CGGCAGAA | -0.0852 ± 0.039 |
| GGTCACGA | 0.183 ± 0.026 |
| TGGAACCA | -0.262 ± 0.0091 |
| CAAGGTGA | 0.406 ± 0.0091 |
| ATAACCGA | -0.147 ± 0.098 |
| GCAGTGCC | -0.117 ± 0.051 |
| ATATGTCA | 0.0208 ± 0.066 |
| ATGCGTAC | -0.272 ± 0.07 |
| TCACAAGA | 0.224 ± 0.03 |
| CGCCGAAC | 0.041 ± 0.012 |
| GTTTGCGA | 0.0776 ± 0.039 |
| CGCAGCCA | 0.00214 ± 0.11 |
| ATAGCCAT | -0.146 ± 0.031 |
| AGTTGGGA | -0.167 ± 0.025 |
| GAGTGAGA | 0.334 ± 0.017 |
| ATAGCTCG | -0.0789 ± 0.017 |
| CTACCAGA | -0.1381 ± 0.0011 |
| ACGACACA | 0.115 ± 0.034 |

| Sequence | PBM E-score of 8-mer |
| --- | --- |
| ATTCGACC | -0.152 ± 0.058 |
| CGCGTTCC | -0.0382 ± 0.061 |
| TGTAATAA | 0.0238 ± 0.14 |
| CTGATGAA | -0.00161 ± 0.098 |
| AACCTGTC | 0.30927 ± 0.00016 |
| AATCATCA | 0.153 ± 0.021 |
| CATGGAAA | -0.108 ± 0.022 |
| ACAGCAGG | -0.0233 ± 0.061 |
| GAGTGGGA | 0.0301 ± 0.01 |
| CCACGCGG | -0.0574 ± 0.0026 |
| CCCATTAA | -0.0255 ± 0.068 |
| GAAGCATA | -0.215 ± 0.014 |
| GCTATTTA | -0.0124 ± 0.033 |
| ATGACGGA | -0.112 ± 0.07 |
| ACGCACTG | -0.0386 ± 0.054 |
| AAAAGACA | -0.0601 ± 0.029 |
| CTGTTTAC | 0.071 ± 0.057 |
| ACTCTGCC | -0.0304 ± 0.22 |
| ACCGAGAA | 0.0157 ± 0.05 |
| CTCCTAAC | -0.0554 ± 0.0048 |
| AATTCATA | -0.105 ± 0.05 |
| CCAGTTAA | -0.038 ± 0.082 |

| Sequence | PBM E-score of 8-mer |
| --- | --- |
| CCATAGAC | -0.125 ± 0.027 |
| GTTATCCA | -0.0787 ± 0.055 |
| AACGTAGG | -0.125 ± 0.0043 |
| GACCGTCC | -0.285 ± 0.035 |
| AACACGTA | 0.34 ± 0.024 |
| CAAAGCTC | -0.27 ± 0.043 |
| CCAAACAG | -0.106 ± 0.092 |
| GAGTAGAC | -0.108 ± 0.038 |
| GAGCGCTA | 0.15 ± 0.059 |
| GCCAGGAA | 0.029 ± 0.044 |
| AGTGACAT | 0.309 ± 0.017 |
| ATCTAGAT | -0.0368 ± 0.064 |
| AGGTTTGG | -0.19 ± 0.043 |
| ACAAGTCC | 0.0707 ± 0.041 |
| CAGTGCCA | 0.1759 ± 0.00025 |
| CTCTTAGC | 0.0198 ± 0.0047 |
| ATCAGTCA | -0.125 ± 0.057 |
| ATGAACTC | -0.224 ± 0.041 |
| GAATAACA | 0.148 ± 0.0084 |
| GACCACTA | -0.146 ± 0.042 |
| AGGAGAAA | -0.109 ± 0.19 |
| CTCTATGA | 0.0103 ± 0.013 |

| Sequence | PBM E-score of 8-mer |
| --- | --- |
| AAATTGCG | 0.0455 ± 0.011 |
| AATAGACA | 0.0687 ± 0.04 |
| GTGTACAA | 0.0145 ± 0.089 |
| GGCTTTAC | -0.202 ± 0.092 |
| ACCGGAGT | 0.00344 ± 0.032 |
| ACGCTCCC | -0.0122 ± 0.036 |
| AAGCCATA | -0.228 ± 0.051 |
| TCTTTTCA | -0.0322 ± 0.15 |
| GAACGGTC | 0.0352 ± 0.063 |
| AATATATC | -0.166 ± 0.084 |
| ATTACCAC | 0.226 ± 0.032 |
| AGGAAAAT | -0.141 ± 0.042 |
| AACTGACA | 0.283 ± 0.032 |
| GAAGCTTA | -0.128 ± 0.049 |
| CTATGTAC | -0.179 ± 0.03 |
| GAGACGGC | -0.0695 ± 0.089 |
| CGGCACCA | 0.203 ± 0.048 |
| GATTAAGA | -0.0946 ± 0.089 |
| GGATCAGA | -0.195 ± 0.061 |
| AATACCAA | -0.134 ± 0.066 |
